# According to the supplement of paper PMC11417369:
# The list shows a part of the results.
# System: PfSIP2 AP2 domain 1 (GST-tagged)
# Experiment: gcPBM binding intensity (ln(normalized median fluorescence intensity)); higher = stronger DNA binding
# Summary of the method: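 An Agilent 4 × 180k array of primer-extended double-stranded 36-bp intergenic genomic probes, with negative controls, was incubated for 1 h with GST-tagged P. falciparum DNA-binding domains expressed in E. coli. Alexa488 anti-GST antibody detected bound protein, scanned at 488 nm. Binding intensity is the highest Masliner-normalised natural-log median intensity across replicate spots of either probe orientation.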
row,Sequence,gcPBM binding intensity (ln)
1,AAAATTAAAAAGAACACACAAATATATCTATAATAA [CACACA_site7660],6.9
2,TTAATAAATAAAAATGCACACAGTTAACATGTTGAA [CACACA_site1200],7.49
3,GCACATAAATATATGACACACACACCGATTATATAT [CACACA_site9003],7.07
4,AAAAAAAAAAAAAAAACACACAAACATCAAATTATT [CACACA_site5083],7.73
5,ATAATAATTTAATACATACACACGTATATCTTTTTT [CACACA_site2041],7.05
6,ATACAAAAAGTAAAAAGTACTTAACTAAATATATAA [XGTACX_site2335],6.96
7,TTTTCAATATATTAATGTACGAATACGCAAATAAGA [XGTACX_site1613],7.23
8,TTTTTTTTTTTTTTTGCACACACATAATAGGTACAA [CACACA_site3578],7.5
9,GCAGGATTGGTTCAAACACACATATTATATGACTAT [CACACA_site660],7.01
10,ATCTTATATGATCACACACACACGCACAAAACAGAA [CACACA_site4913],7.56
11,AAAAAAAAAAAATGCACACATATATTTCCATATACA [CACACA_site1471],7.54
12,TTTAAAATACAGAAGGTGCATTTAACATATTTGTAT,10.6
13,TATATATATAAACACACACACATATATATATATATA [CACACA_site4584],9.48
14,ATATATATATATATATGTACTAATTAATATTTCGAG [XGTACX_site580],9.58
15,ACAAAATTTACAAAATGTACAAAATTTACAAAGTAT [XGTACX_site6463],6.8
16,GTATATCATATTTCATGTACACAAAAAAATAAAAAT [XGTACX_site704],7.3
17,TATATATATTATATATGTACATATTATATATATATA [XGTACX_site7300],8.97
18,ATATATTTGATAAGAGTGCACAAATACATACATACA [GTGCAC_site9704],10.6
19,ATAATACTACCTACATGTACTTATATATAAATGAAT [XGTACX_site3417],7.39

row,Sequence,gcPBM binding intensity (ln)
1,GTTTTAACAAAATTAGTGCATTTATCAATTATATAA,8.58
2,TTTTTTTTTTCAATGGCACACATTTTAGATTTATGC [CACACA_site1074],6.87
3,ACATCAAGCGGACACACACACACACCGACAGACACA [CACACA_site4361],7.39
4,AAAGAATCAAGAATAGTGCAAATATGTATAACCTTT,8.08
5,ATAAAATAATGAAAAACACACATTTTTATTTGTATA [CACACA_site3369],6.77
6,ATATATATATATGAATCACACACAAAAAATATAGAG [CACACA_site9298],9.33
7,AATAACATGTTATATACACACATTATGAAGTCTTCA [CACACA_site746],6.74
8,ATTGTTTTTTTTTCTTTGTGGAATGAATGAATATAT [XGTACX_negctrl_site603],7.3
9,AAGATTATAAATATATGTACATAAATATATTATATA [XGTACX_site8056],7.01
10,AATATAAATAATATATGTACATATATATATATATAT [XGTACX_site1021],9.01
11,AAAGTATTCTTTACACGTACATATATATAAATATAA [XGTACX_site7557],7.12
12,AGAATTGTTGTTAAAGAATTCTTTTTTATCCTTCCC [CACACA_negctrl_site1820],6.89
13,TTTGTATATATTAATGTACACACATGCGTATGTTCG [CACACA_site9193],6.94
14,AATATAGATATAAAAAGTACATTATATATATATATA [XGTACX_site6899],9.34
15,TATACATACCATAATGCATGTAAGAACAAATAACTG [TGCATGCA_site264],7.08
16,ATGACTCTCAAGTTTGCACACATTTATATTTTTTAA [CACACA_site2605],7.35
17,TATGTATATATATATATATATATATATATATATATA [TGCATGCA_negctrl_site491],8.85
18,ATGGCCACTGTGAAATGTACAAAAAAAAAATACAAT [XGTACX_site2874],6.84
19,CATACAAATTAATATGTACACACAAATATATATATA [CACACA_site8605],9.21

row,Sequence,gcPBM binding intensity (ln)
1,AGTAGTCTGGAGAAAAGTACATAGTATCTGGTAACC [XGTACX_site2024],6.95
2,TTTTTTTTTTTTTTTTGTACATATTTTAATTTGTTT [XGTACX_site6297],6.95
3,TTCCAAAATTGCACATGTACAAAATTCTCCAATATG [XGTACX_site3419],7.16
4,TTTATATTATTTAATGAGAAATAATTATAAACAATT [TGCATGCA_negctrl_site65],6.8
5,AAAAAAAAAAAATAATGTACATATGTATTTGAGAAA [XGTACX_site3572],6.88
6,TTGCCCATTTAATTAACACACAAATATTTATATTCT [CACACA_site738],7.37
7,GTTAAATAATATATATGTACATACATAAGTGTTACT [XGTACX_site4778],7.16
8,ATTTCCTTTTGTTTCAGTACATAATTTTTTTTTTTT [XGTACX_site4842],7.08
9,GATATTCATAGAAACACACATACAAATTATGTATAT [CACACA_site144],6.92
10,TAATTGTACGCCAATACACACAGAATTAAAATGTAG [CACACA_site4234],7.14
11,TTTTTAAAGTTTTATACACACACCAAAATTATTCTA [CACACA_site600],7
12,TATGTGCACCCATGTACATGCGGACATATGTTATAT [TGCATGCA_site383],12
13,ATATATTATATATATTGTACATGTAAAATTTTAAAA [XGTACX_site7197],7.3
14,AAAAATTTGGCATACACACACACACCCACACCCACA [CACACA_site587],7.07
15,TATGTATTTAAATTAACACACATATGTGGTTAATAG [CACACA_site5697],6.82
16,ACATATATATATATATATATATATATATCATTATGT [CACACA_negctrl_site724],7.9
17,ACTCTTGATCTGAATGCACACAATAAATTATATAAA [CACACA_site1438],7.81
18,AGTATAATAATATTTACACACGCATATGTTATATAT [CACACA_site1476],6.99
19,TCTAAAAATAAGAACACACACATATAAGCATATAAA [CACACA_site2274],6.84
